Experimental findings from PubChem BioAssay AID463173 (ICCB-Longwood Screening Facility, Harvard Medical School, 2010) are described below.

In all, about 52,000 compounds went through this assay and about 1,700 (3.3%) were called active. Cut-off read from the data, not from the text of the source: active = survival mostly below about 52% (no sharp cut-off); inactive = mostly above about 56%. The list shows a part of the results.

For the experiment, the system named is Wild type. The experiment can be described thus: S. aureus survival, RN4220 and DeltatarO strains – OD600, teichoic acid synthesis inhibitors, primary screen (AID 463173). To be noted: S. aureus RN4220 wild type/DeltatarO growth, OD600, 18 h, hits give low values, screened at 18.75 µg/mL (by protocol).
Turning to `COc1ccccc1C(=O)Nc1nnc(S(=O)(=O)N2CCCCC2)s1`, the survival was inactive: 74%.

Consider `CC(C)c1cnc2c(c1SCC(=O)c1ccc(Cl)cc1)c(=O)n(C)c(=O)n2C`, for which the survival was inactive: 138%.

As to `COc1ccccc1NC(=O)CSc1ncc(CO)n1Cc1ccc(F)cc1`, the survival was inactive: 121%.

With `O=C(Cc1ccccc1)NN1C(=O)c2ccccc2C1=O`, the survival was inactive: 113%.

Regarding `COc1ccc2ncc3c(-c4ccccc4)nn(-c4ccc(C)c(C)c4)c3c2c1`, the survival is active: 0%.

In the case of `O=C(NCN1CCCCC1)Nc1cccc(Cl)c1`, the survival is inactive: 103%.

`COc1ccc(CN(Cc2cc3cccc(C)c3n3nnnc23)C(=O)N2CCOCC2)cc1`: the survival is inactive: 96%.

In the case of `Cc1cc(-c2ccccc2)nc2cc(C(=O)Nc3ccc(Cl)c(Cl)c3)nn12`, the survival was inactive: 70%.

Take `Cc1cccc(N2CCN(C(=O)C3CCN(S(=O)(=O)Cc4ccccc4)CC3)CC2)c1C`: the survival is inactive: 74%.

`CC1CCN(C(=O)CSc2nc3ccccc3c(=O)[nH]2)CC1`: the survival was inactive: 103%.

Regarding `Cc1ccccc1NC(=O)Cn1c(=O)n(Cc2ccco2)c(=O)c2ccc(C(=O)NC3CCCC3)cc21`, the survival was inactive: 71%.

`COc1ccccc1N1CCN(C(=O)C2CCN(S(=O)(=O)c3cccs3)CC2)CC1`: the survival was inactive: 93%.

Regarding `COc1ccccc1C(=O)NC1(C(F)(F)F)C(=O)NC(C)=C1C#N` (centres undefined), the survival was inactive: 90%.

`CCOC(=O)c1cnc2cc(Cl)c(OC)cc2c1Nc1ccc(Br)cc1C`: the survival was inactive: 87%.

`C#CCOc1c(Br)cc(C2C(C(=O)OC)=C(C)NC3=C2C(=O)c2ccccc23)cc1OCC` (centres undefined): the survival was inactive: 76%.

Regarding `COc1cc(OC)c(NC(=O)c2nn(C)c3c2COc2ccccc2-3)cc1Cl`, the survival is inactive: 111%.

Turning to `Cc1ccccc1NC(=O)Cn1nnc(C(=O)NCc2ccco2)c1N`, the survival was inactive: 87%.

On to `O=C(Nc1ccccc1)c1cc2c(-c3ccccc3)nn(-c3ccccc3)c2s1`, for which the survival was inactive: 60%.

Turning to `C=CCn1c(COc2ccc(OC)cc2)n[nH]c1=S`, the survival is inactive: 98%.

On to `Cc1ccc(C)c(Cn2c(=O)n(CCc3ccccc3)c(=O)c3c(C)c(C)sc32)c1`, for which the survival was inactive: 93%.

On to `COc1ccc(Cn2nc3n(c2=O)-c2ccccc2OC3)cc1`, for which the survival is inactive: 64%.

As to `Cc1cccc(C(=O)Nc2nnc(S(=O)(=O)N3CCOCC3)s2)c1`, the survival is inactive: 68%.

Regarding `CSc1ccc(CCNS(=O)(=O)c2cc(-c3cc(C)no3)ccc2C)cc1`, the survival is inactive: 92%.

On to `O=C(CSc1c2c(nc3ccc(Cl)cc13)CCCC2)N1CCN(c2ccc(Cl)cc2)CC1`, for which the survival is inactive: 53%.

As for `CCOc1ccc(OC(=O)c2sc3ncn(Cc4cccc(F)c4)c(=O)c3c2C)cc1`, the survival was inactive: 55%.

With `CCCCNC(=O)C1(NC(=O)Nc2ccccc2)CCCCC1`, the survival is inactive: 107%.

On to `COc1ccc(OC)c(NC(=O)C(Cc2ccccc2)NS(=O)(=O)c2ccc3c(c2)CCC(=O)N3)c1` (centres undefined), for which the survival was inactive: 88%.

`CCn1cc2nc(SCc3c(F)cccc3Cl)n(CCc3ccccc3)c(=O)c2n1`: the survival was inactive: 64%.

`O=C(COCc1cc(-c2ccc3c(c2)OCO3)on1)Nc1cccc(O)c1`: the survival is inactive: 124%.

Take `O=C(Nc1ccc2nc[nH]c2c1)C1CCCCC1`: the survival was inactive: 87%.

On to `CCN(CC)S(=O)(=O)c1ccc2c(c1)N(CC(=O)Nc1cccc(C(C)=O)c1)C(=O)CO2`, for which the survival was inactive: 73%.

As to `O=C(Nc1ccc(Br)cc1)Nc1nc2c(s1)CCCCCC2`, the survival was inactive: 82%.

For the compound `Cc1cccc(C(=O)n2nc(-c3ccco3)nc2NCc2ccccc2)c1`, the survival is inactive: 85%.

`COc1ccc(Cl)cc1S(=O)(=O)Nc1ccc2c(c1)n(C)c(=O)n2C`: the survival is inactive: 63%.

As to `COc1ccc(NC(=O)C(=O)Nc2ccc3nc4n(c(=O)c3c2)CCCCC4)c(OC)c1`, the survival is inactive: 81%.

Take `CCC(=O)N1c2ccccc2CC1C(=O)NCCCN1CCN(c2ccc(F)cc2)CC1` (centres undefined): the survival is inactive: 146%.

As to `Cc1ccc(-n2ncc3c(NCCc4ccccc4)ncnc32)cc1Cl`, the survival was inactive: 65%.

Take `COc1ccc(CCNC(=O)c2cc(-c3ccc(C)cc3)nc3n[nH]c(-c4ccc(F)cc4)c23)cc1OC`: the survival was inactive: 136%.

Take `O=C(COCc1cc(-c2ccc(F)cc2)on1)Nc1cc(Cl)cc(Cl)c1`: the survival is inactive: 148%.

Consider `O=C(CCSCCc1ccccn1)Nc1ccccc1C(F)(F)F`, for which the survival was inactive: 89%.

`CC(=O)Nc1ccc(C(=O)N2CCOCC2)cc1`: the survival is inactive: 126%.

With `CCc1ccccc1NC(=O)Cn1cc(C(=O)c2ccncc2)c(=O)c2cc(C)ccc21`, the survival is inactive: 75%.

In the case of `O=C(CCSCc1cccc(F)c1)NCCc1ccccc1`, the survival was inactive: 136%.

As to `Cc1ccc(N2CC(C(=O)NCCS(=O)(=O)N3CCN(c4ccc(F)cc4)CC3)CC2=O)cc1` (centres undefined), the survival was inactive: 72%.

With `O=C1NN(c2ccccc2)C(=O)/C1=C\c1ccccc1`, the survival is inactive: 105%.

`O=C(NCc1ccccc1)C1CCCN1S(=O)(=O)c1ccc(Cl)cc1` (centres undefined): the survival is inactive: 99%.

For the compound `CC1=C(C(=O)Nc2cccc(F)c2)C2(CCCCCC2)OC1=O`, the survival is inactive: 82%.

For `COCCCNc1oc(-c2ccc(COc3ccccc3C)o2)nc1C#N`, the survival was inactive: 66%.

As for `COc1cc(OC)c(NC(=O)Cn2c(=O)nc(-c3ccccc3)c3ccccc32)cc1Cl`, the survival is inactive: 68%.

Regarding `Cc1nnc(N(Cc2ccco2)C(=O)c2cccc(C#N)c2)s1`, the survival is inactive: 108%.

With `Cc1c(Cl)cccc1-c1ccc(C(=O)Nc2ccc3oc(-c4cccnc4)nc3c2)o1`, the survival is inactive: 79%.

In the case of `COc1cccc(OCCn2c(-c3ccc(Cl)cc3)nc3ccccc3c2=O)c1`, the survival was inactive: 63%.

Take `COc1cccc(Cn2c(=O)n(-c3cc(C)cc(C)c3)c(=O)c3oc4ccccc4c32)c1`: the survival is inactive: 84%.

Turning to `CCOc1cc(CNC(=O)c2cc(-c3ccc(Cl)s3)nc3ccccc23)ccc1OC`, the survival was inactive: 93%.

`CCCC(=O)C1=C(N(C)c2ccccc2)CC(C)(C)CC1=O`: the survival is inactive: 115%.

Take `COc1ccc(CCNC(=O)Cn2c(=O)cc(C(F)(F)F)c3c(C)nn(C)c32)c(OC)c1`: the survival is inactive: 99%.

Regarding `CCc1ccc(C2=CC(c3cccc(OC)c3OC)n3c(nc4ccccc43)N2)cc1` (centres undefined), the survival was inactive: 55%.

Regarding `C=CCOc1cccc(CNn2nnnc2N)c1`, the survival is inactive: 102%.

With `CCc1ccc(NC(=O)C2CCN(c3ccc(Sc4ccc(C)cc4)nn3)CC2)cc1`, the survival was inactive: 68%.
